Out of some 3,200 compounds screened, about 110 (3.4%) showed an effect of 50% or more. The list shows a part of the results.
The compounds below were run on T1, V. cholerae SAD30. Conditions: relative growth, OD600, LB; 25 µM; inhibitor.
T1 construct: SAD30
Design: species or system S. aureus MSSA476 (TSB) or V. cholerae SAD30 (LB); 384-well bacterial growth screen at 25 uM, OD600 relative to DMSO control

| Structure (SMILES) | % of control remaining [%] |
| --- | --- |
| C=CC(=O)N(Cc1cc(F)c(F)c(F)c1)C(C)C1CCCO1 (centres unmarked) [1-L13, N-[1-(oxolan-2-yl)ethyl]-N-[(3,4,5-trifluorophenyl)methyl]prop-2-enamide] | 84.006 |
| C=CC(=O)N1CC(c2ncon2)C1 [2-I03, 1-[3-(1,2,4-oxadiazol-3-yl)azetidin-1-yl]prop-2-en-1-one] | 109.804 |
| Cc1nc(C)c(C(=O)CCl)o1 [10-N08, 2-chloro-1-(2,4-dimethyl-1,3-oxazol-5-yl)ethan-1-one] | 41.4572 |
| Cc1ccc(C=C(C#N)C(=O)NC(C)C)o1 [8-I21, 2-cyano-3-(5-methylfuran-2-yl)-N-(propan-2-yl)prop-2-enamide] | 78.9259 |
| COc1ccc(CCNC(=O)C(C)Cl)cc1 (centres unmarked) [5-D12, 2-chloro-N-[2-(4-methoxyphenyl)ethyl]propanamide] | 91.9618 |
| C=CC(=O)N1CCC(C(=O)N2CCC(c3ncco3)CC2)CC1 [2-B06, 1-{4-[4-(1,3-oxazol-2-yl)piperidine-1-carbonyl]piperidin-1-yl}prop-2-en-1-one] | 96.2173 |
| CC(C)NC(=O)C(C#N)=Cc1ccc(Cl)cc1Cl [9-K07, 2-cyano-3-(2,4-dichlorophenyl)-N-(propan-2-yl)prop-2-enamide] | 86.6757 |
| C=CCNC(=O)C(C#N)=Cc1ccc(C#N)cc1 [8-O07, 2-cyano-3-(4-cyanophenyl)-N-(prop-2-en-1-yl)prop-2-enamide] | 73.0795 |
| C=CC(=O)N1CC(OCc2ccccc2F)C1 [3-I15, 1-{3-[(2-fluorophenyl)methoxy]azetidin-1-yl}prop-2-en-1-one] | 89.6196 |
| Cc1cc(CN(Cc2ccn(C)n2)C(=O)CCl)ccc1F [5-G14, 2-chloro-N-[(4-fluoro-3-methylphenyl)methyl]-N-[(1-methyl-1H-pyrazol-3-yl)methyl]acetamide] | 96.6691 |
| C=CC(=O)N1C2CCCC1CC1(C2)NC(=O)NC1=O (centres unmarked) [2-K06, 9-(prop-2-enoyl)-9-azaspiro[bicyclo[3.3.1]nonane-3,4'-imidazolidine]-2',5'-dione] | 89.5783 |
| C=CC(=O)NC1CC(=O)N(CC)C1 (centres unmarked) [2-O22, N-(1-ethyl-5-oxopyrrolidin-3-yl)prop-2-enamide] | 103.32 |
| CCC(NC(=O)CCl)c1ccc(C)cc1 (centres unmarked) [4-K17, 2-chloro-N-[1-(4-methylphenyl)propyl]acetamide] | 97.3043 |
| C=CC(=O)N1CCC(C(=O)N[C@H]2CCC[C@H]2O)CC1 [2-K04, N-[(1S,2R)-2-hydroxycyclopentyl]-1-(prop-2-enoyl)piperidine-4-carboxamide] | 95.9085 |
| O=C(O)c1csc(C(=O)CCl)c1 [10-E22, 5-(2-chloroacetyl)thiophene-3-carboxylic acid] | 102.864 |
| Cl.O=C(CN1CCN(C(=O)CCl)CC1)Nc1cccc(F)c1 [5-P19, 2-[4-(2-chloroacetyl)piperazin-1-yl]-N-(3-fluorophenyl)acetamide hydrochloride] | 107.261 |
| O=C(CCl)NC1CCCc2nc(-c3ccccc3)sc21 (centres unmarked) [7-B04, 2-chloro-N-(2-phenyl-4,5,6,7-tetrahydro-1,3-benzothiazol-7-yl)acetamide] | 86.833 |
| O=C(CCl)NC1CCCN(c2cc(N3CCOCC3)ncn2)C1 (centres unmarked) [4-N21, 2-chloro-N-{1-[6-(morpholin-4-yl)pyrimidin-4-yl]piperidin-3-yl}acetamide] | 107.138 |
| N#CC(C(=O)CCl)=C1NC2=C(CCc3ccccc32)S1 [10-N10, 4-chloro-2-{1H,2H,4H,5H-naphtho[1,2-d][1,3]thiazol-2-ylidene}-3-oxobutanenitrile] | 91.3306 |
| O=C1CCc2cc(C(=O)CCl)c(F)cc2N1 [10-O20, 6-(2-chloroacetyl)-7-fluoro-1,2,3,4-tetrahydroquinolin-2-one] | 36.6258 |
| COc1ccc(CCNC(=O)CCl)cc1 [5-H12, 2-chloro-N-[2-(4-methoxyphenyl)ethyl]acetamide] | 68.593 |
| CN(C)C(=O)c1ccc(CNC(=O)CCl)cc1 [6-C16, 4-[(2-chloroacetamido)methyl]-N,N-dimethylbenzamide] | 88.7288 |
| Cc1cc(C(=O)CCl)c(C)n1CC1CCCO1 (centres unmarked) [10-B08, 2-chloro-1-{2,5-dimethyl-1-[(oxolan-2-yl)methyl]-1H-pyrrol-3-yl}ethan-1-one] | 94.2918 |
| N#CC1=C(N2CCOCC2)SC(c2cccc([N+](=O)[O-])c2)NC1=O (centres unmarked) [9-L19, 6-(morpholin-4-yl)-2-(3-nitrophenyl)-4-oxo-3,4-dihydro-2H-1,3-thiazine-5-carbonitrile] | 86.9477 |
| CCCCNC(=O)C(C#N)=Cc1ccc(Cl)cc1Cl [9-O07, N-butyl-2-cyano-3-(2,4-dichlorophenyl)prop-2-enamide] | 83.4126 |
| CCCn1c(C)cc(C=C(C#N)C(=O)Nc2ccc3c(c2)OCO3)c1C [9-G07, N-(1,3-dioxaindan-5-yl)-2-cyano-3-(2,5-dimethyl-1-propyl-1H-pyrrol-3-yl)prop-2-enamide] | 88.5792 |
| O=C(CCl)NC1CCCS(=O)(=O)c2ccccc21 (centres unmarked) [6-O19, 2-chloro-N-(1,1-dioxo-2,3,4,5-tetrahydro-1lambda6-benzothiepin-5-yl)acetamide] | 96.1608 |
| COc1ccc(NC(C)=O)cc1NC(=O)CCl [5-G03, 2-chloro-N-(5-acetamido-2-methoxyphenyl)acetamide] | 109.11 |
| CC(Cl)C(=O)N1CCC(N(CC(F)(F)F)S(C)(=O)=O)CC1 (centres unmarked) [7-C07, N-[1-(2-chloropropanoyl)piperidin-4-yl]-N-(2,2,2-trifluoroethyl)methanesulfonamide] | 82.7358 |

Source: publication PMC11995724, “Antibiotic target discovery by integrated phenotypic and activity-based profiling of electrophilic fragments” (Cell chemical biology, 2025)
